Assay results published in patent US10220024B2, “Method of inhibiting cancer cell, method for detecting cancer cell, and system for detecting cancer cell” (CANON KABUSHIKI KAISHA, priority 2012, dated 2019).
The name of at least one read-out is uncertain. Some compounds share one wording; it may come from a single statement.

System: K562 ALDH (+) fraction (cancer stem cells)
Assay: Cancer stem-cell selective inhibitory action against chronic myelocytic leukemia cells, ALDH (+) fraction, CellTiter-Glo
Assay type: cell-based, Human
Settings: 24 hours
Protocol: Human chronic myelocytic leukemia cells, K562, were pre-cultured in RPMI1640 medium containing 10% FBS at 37° C. in a 5% CO2 ambient. Then, a fraction containing 80% or more of cancer stem cells was extracted by use of ALDEFLUOR reagent (manufactured by VERITAS Corporation) and FACSAria flow cytometry (manufactured by Nippon Becton, Dickinson and Company). Subsequently, Compound (5) was added to the medium so as to obtain a final concentration of 10 μg/mL and cultured at 37° C. for 24 hours in a 5% CO2 ambient. The cultured cells were analyzed for viable cell count according to CellTiter-Glo Luminescent Cell Viability Assay (manufactured by Promega KK.). As a reference, the number of cells cultured in a medium containing a 0.1% dimethylsulfoxide solution (hereinafter, simply referred to as DMSO) in place of a medium containing Compound (1), in the aforementioned operation, was used as 0.1. Note that hereinafter, an ALDEFLUOR reagent positive fraction (deemed as cancer stem cells) is represented by ALDH (+), whereas an ALDEFLUOR reagent negative fraction (not deemed as cancer stem cells) is represented by ALDH (−), in some cases.
The same operation as in Experimental Example 12 was repeated except that Compound (5) in Experimental Example 12 was changed to the compounds shown in Table 4 and final concentrations shown in Table 4 were used and viable cell counts were separately analyzed. Note that the growth rate in Examples herein is a numerical value of the number of cells obtained after culture relative to the number of cells (regarded as 0.1) grown in a medium containing 0.1% DMSO.
The same operation as in Experimental Example 12 was repeated except that Compound (5) in Experimental Example 12 was changed to Imatinib (manufactured by NOVARTIS), which is a general anticancer drug, and comparative compounds shown in Table 4 and final concentrations shown in Table 4 were used and viable cell counts were separately analyzed.
The growth suppressive effect of cancer stem cells was evaluated based on the following criteria. Note that the growth rate in Examples herein is a numerical value relative to the number of cells (regarded as 0.1) grown in a medium containing 0.1% DMSO. • A: The value of ALDH (+) is less than 0.5 (growth suppressive effect against cancer stem cells is extremely high) • B: The value of ALDH (+) is 0.5 or more and less than 0.95 (growth suppressive effect against cancer stem cells is high) • C: The value of ALDH (+) is 0.95 or more (no growth suppressive effect against cancer stem cells)
Furthermore, superiority of cancer stem cells was evaluated by comparing cancer stem cells to cancer cells based on the following criteria. ALDH (+) represents cancer stem cells; whereas ALDH (−) represents general cancer cells. • A: The value of ALDH (+)/ALDH (−) is less than 0.8 (selective inhibitory effect against cancer stem cells is extremely high) • B: The value of ALDH (+)/ALDH (−) is 0.8 or more and less than 0.95 (selective inhibitory effect against cancer stem cells is high) • C: The value of ALDH (+)/ALDH (−) is 0.95 or more (no selective inhibitory effect against cancer stem cells)

Compound	ALDH(+) Superiority evaluation (10 μg/ml)	ALDH(+)/ALDH(−) (10 μg/ml)	also measured
CCN1c2ccc(/C=C/C3=[N+](C)c4ccc5ccccc5c4C3(C)C)cc2C2CCCC21 (stereo not shown) [Compound 39]	A (The value of ALDH (+)/ALDH (−) is less than 0.8)	0.42	–
Cc1ccc(NC(=O)c2ccc(CN3CCN(C)CC3)cc2)cc1Nc1nccc(-c2cccnc2)n1 [Imatinib, reference compound]	–	–	ALDH(+) Superiority evaluation (0.12 μg/ml): C (The value of ALDH (+)/ALDH (−) is 0.95 or more); ALDH(+)/ALDH(−) (0.12 μg/ml): 1.47; ALDH(+) Superiority evaluation (0.24 μg/ml): C (The value of ALDH (+)/ALDH (−) is 0.95 or more); ALDH(+)/ALDH(−) (0.24 μg/ml): 1.48; ALDH(+) Superiority evaluation (0.35 μg/ml): C (The value of ALDH (+)/ALDH (−) is 0.95 or more); ALDH(+)/ALDH(−) (0.35 μg/ml): 1.51; ALDH(+) Superiority evaluation (0.47 μg/ml): C (The value of ALDH (+)/ALDH (−) is 0.95 or more); ALDH(+)/ALDH(−) (0.47 μg/ml): 1.63; ALDH(+) Superiority evaluation (0.59 μg/ml): C (The value of ALDH (+)/ALDH (−) is 0.95 or more); ALDH(+)/ALDH(−) (0.59 μg/ml): 2.80
CCn1c2ccccc2c2cc(/C=c3/s/c(=C\C4=[N+](CC)c5ccccc5C4(C)C)n(CC(=O)O)c3=O)ccc21 [Compound 20]	A (The value of ALDH (+)/ALDH (−) is less than 0.8)	0.56	–
COc1ccc(N2c3ccc(/C=C/C4=[N+](CCC(=O)O)c5ccccc5C4(C)C)cc3C3CCCC32)cc1 (stereo not shown) [Compound 32]	B (The value of ALDH (+)/ALDH (−) is 0.8 or more and less than 0.95)	0.87	–
CCn1c2ccccc2c2cc(/C=C/C3=[N+](C)c4ccccc4C3(C)C)ccc21 [Compound 36]	A (The value of ALDH (+)/ALDH (−) is less than 0.8)	0.66	–
COc1ccc(N2c3ccc(/C=C/C4=[N+](C)c5ccccc5C4(C)C)cc3C3CCCC32)cc1 (stereo not shown) [Compound 11]	–	–	ALDH(+) Superiority evaluation (0.05 μg/mL): B (The value of ALDH (+)/ALDH (−) is 0.8 or more and less than 0.95); ALDH(+)/ALDH(−) (0.05 μg/mL): 0.85; ALDH(+) Superiority evaluation (0.5 μg/mL): A (The value of ALDH (+)/ALDH (−) is less than 0.8); ALDH(+)/ALDH(−) (0.5 μg/mL): 0.65; ALDH(+) Superiority evaluation (1 μg/mL): A (The value of ALDH (+)/ALDH (−) is less than 0.8); ALDH(+)/ALDH(−) (1 μg/mL): 0.56
CC[N+]1=C(/C=c2\s/c(=C/c3ccc4c(c3)C3CCCC3N4c3ccccc3)c(=O)n2CC(=O)O)C(C)(C)c2ccccc21 (stereo not shown) [Compound 15]	B (The value of ALDH (+)/ALDH (−) is 0.8 or more and less than 0.95)	0.81	–
COc1ccc(N2c3ccc(/C=C/c4sc5ccccc5[n+]4CC(=O)O)cc3C3CCCC32)cc1 (stereo not shown) [Compound 33]	B (The value of ALDH (+)/ALDH (−) is 0.8 or more and less than 0.95)	0.89	–
CCN1c2ccc(/C=C/C3=[N+](C)c4ccccc4C3(C)C)cc2C2CCCC21 (stereo not shown) [Compound 34]	A (The value of ALDH (+)/ALDH (−) is less than 0.8)	0.69	–
COc1ccc(N2c3ccc(/C=C/C4=[N+](C)c5ccccc5C4(C)C)cc3C3CCCC32)cc1 (stereo not shown) [Compound 38]	A (The value of ALDH (+)/ALDH (−) is less than 0.8)	0.46	–
CCn1c2ccccc2c2cc(/C=C/C3=[N+](C)c4ccc5ccccc5c4C3(C)C)ccc21 [Compound 40]	A (The value of ALDH (+)/ALDH (−) is less than 0.8)	–	ALDH(+) Superiority evaluation (1 μg/mL): B (The value of ALDH (+)/ALDH (−) is 0.8 or more and less than 0.95)
CCN1c2ccc(/C=C/C3=[N+](CC)c4ccc(OC)cc4C34CCCCC4)cc2C2CCCC21 (stereo not shown) [Compound 8]	A (The value of ALDH (+)/ALDH (−) is less than 0.8)	0.72	–
O=C(O)Cn1c(=O)/c(=C\c2ccc3c(c2)C2CCCC2N3c2ccccc2)s/c1=C1/SC(=S)N(Cc2ccccc2)C1=O (stereo not shown) [compound 5, reference compound]	C (The value of ALDH (+)/ALDH (−) is 0.95 or more)	1.18	ALDH(+) Superiority evaluation (1 μg/mL): C (The value of ALDH (+)/ALDH (−) is 0.95 or more); ALDH(+)/ALDH(−) (1 μg/mL): 1.09
